The campaign covered roughly 310,000 compounds. About 2,200 (0.71%) showed an effect of 50% or more. Effects have a minus sign here. This is one part of the list.
These compounds were tested against human ether-à-go-go-related gene (hERG) potassium channel (human, UniProt Q12809) (assay: primary screen, population patch clamp on CHO cells stably expressing hERG).
human ether-à-go-go-related gene (hERG) potassium channel, sequence (Q12809 whole entry, looked up): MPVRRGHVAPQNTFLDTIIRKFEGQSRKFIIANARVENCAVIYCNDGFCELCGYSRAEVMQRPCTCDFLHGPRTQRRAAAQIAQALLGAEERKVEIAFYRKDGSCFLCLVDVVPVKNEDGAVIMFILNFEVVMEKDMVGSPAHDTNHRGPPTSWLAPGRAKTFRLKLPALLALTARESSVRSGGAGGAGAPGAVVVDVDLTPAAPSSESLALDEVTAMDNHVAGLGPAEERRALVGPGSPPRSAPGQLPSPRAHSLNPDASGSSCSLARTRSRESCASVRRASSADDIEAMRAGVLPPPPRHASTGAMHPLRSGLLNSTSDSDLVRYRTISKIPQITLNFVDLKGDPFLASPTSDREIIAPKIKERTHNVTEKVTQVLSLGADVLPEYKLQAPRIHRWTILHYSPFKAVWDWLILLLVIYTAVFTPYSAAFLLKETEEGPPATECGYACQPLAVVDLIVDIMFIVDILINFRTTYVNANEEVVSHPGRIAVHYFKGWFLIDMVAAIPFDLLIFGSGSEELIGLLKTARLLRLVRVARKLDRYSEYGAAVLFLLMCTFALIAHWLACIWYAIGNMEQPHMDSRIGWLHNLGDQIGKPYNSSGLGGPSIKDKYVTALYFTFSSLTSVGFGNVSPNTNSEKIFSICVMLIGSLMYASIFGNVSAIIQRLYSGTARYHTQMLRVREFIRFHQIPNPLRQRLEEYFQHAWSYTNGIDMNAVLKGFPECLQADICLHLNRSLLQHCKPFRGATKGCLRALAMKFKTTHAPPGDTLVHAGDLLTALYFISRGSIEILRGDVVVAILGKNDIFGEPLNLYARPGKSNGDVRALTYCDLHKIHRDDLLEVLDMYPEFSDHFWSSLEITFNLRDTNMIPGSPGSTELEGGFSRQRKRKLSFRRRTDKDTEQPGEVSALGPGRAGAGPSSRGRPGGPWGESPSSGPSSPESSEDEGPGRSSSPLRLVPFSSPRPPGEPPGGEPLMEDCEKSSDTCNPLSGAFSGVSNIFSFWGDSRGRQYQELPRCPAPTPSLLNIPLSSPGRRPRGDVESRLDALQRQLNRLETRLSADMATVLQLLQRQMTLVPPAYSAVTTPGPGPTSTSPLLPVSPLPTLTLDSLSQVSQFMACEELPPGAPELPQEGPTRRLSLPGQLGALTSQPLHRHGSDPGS

| Compound | hERG current change (%, negative = inhibition) at 1uM [%] |
| --- | --- |
| CC1(c2nnc(-c3cccc(Cl)c3)o2)CC(c2ccccc2F)=NO1 (centres unmarked) | 8.2 |
| Fc1ccccc1COc1ccc(-c2nnn(Cc3ccccc3F)n2)cc1 | 10.4 |
| Cc1csc(NC(=O)CCc2c(C)nc3cc(-c4ccc(Cl)cc4)nn3c2C)n1 | 5.86 |
| Cc1cccc(NC(=O)CSc2nnc(CNC(=O)c3ccco3)n2C)c1C | -4.92 |
| O=C(c1ccco1)N1CCN(c2c([N+](=O)[O-])nn(-c3cccc(Cl)c3)[n+]2[O-])CC1 | 0.245 |
| Cc1sc(=NC(=O)c2ccco2)n(C)c1-c1ccc(Cl)cc1 | -7.79 |
| Cc1ccc(O)c(C(=O)c2cnn(C(=O)COc3ccccc3C#N)c2)c1 | 6.21 |
| CC1(C)Cc2ccccc2C(NNC(=O)c2cccnc2)=N1 | 11.1 |
| Cc1cc(Cl)cc(Br)c1OCCCN1C(=O)NC(C)(C)C1=O | 15.5 |
| CC1CCCCN1CCCNc1ccc(C(CC(N)=O)NC(=O)c2ccccc2)cc1[N+](=O)[O-] (centres unmarked) | 9.54 |
| O/C(=C\c1nc2ccccc2nc1/C=C(\O)c1ccccc1)c1ccccc1 | 6.79 |
| COc1ccc2c(c1)c(CC(=O)NCc1cc([N+](=O)[O-])ccc1O)c(C)n2C(=O)c1ccc(Cl)cc1 | 2.96 |
| COC(=O)C1C(c2ccccc2)C(C(=O)N2CCOCC2)C1c1ccccc1 (centres unmarked) | 1.69 |
| Cc1ccc(-n2c(C)cc(/C=N\NC(=O)CC(=O)NC(C)C)c2C)cc1 | 7.36 |
| CO/N=C/NC(=O)N1OC[C@@H]2COc3ccc4ccccc4c3[C@@H]21 | 11.4 |
| O=C(COc1ccc(F)cc1)N(Cc1ccc(Cl)cc1)C1CCS(=O)(=O)C1 (centres unmarked) | 16 |
| C=CCSC1=N/C(=C\C=C\c2ccco2)C(=O)S1 | 10.4 |
| CCOC(=O)C/C(C)=N/NC(=O)C1CC1(c1ccccc1)c1ccccc1 (centres unmarked) | 12.1 |
| CC(C)[C@H](NC(=O)[C@@H]1Cc2ccccc2CN1C(=O)OC(C)(C)C)C(=O)NCc1ccco1 | -2.34 |
| O=C(CN(CCc1ccccc1)C(=O)CNS(=O)(=O)c1ccccc1)NCc1ccco1 | 6.42 |
| CCN(CC(=O)Nc1c(F)cccc1F)C(=O)CNC(=O)c1ccc(C)s1 | 14.5 |
| Cc1noc(C)c1C(=O)N1CCC2(CC1)Oc1ccc(F)cc1C(=O)C21CC(c2ccc(Cl)cc2)=NO1 (centres unmarked) | 17.4 |

| Compound | hERG current change (%, negative = inhibition) at 1uM [%] |
| --- | --- |
| COCCNC(=O)/C(C#N)=C/c1ccccc1Br | 3.84 |
| Cc1cc2oc(=O)cc(CN3CCCCC3)c2cc1C(C)C | 5.7 |
| O=C(NCc1cccs1)C1CCN(S(=O)(=O)c2ccc3c(c2)OCCO3)CC1 | 11.5 |
| COc1ccc(CCNc2ncnc3[nH]ncc23)cc1OC | 17.6 |
| CCN(CC)c1ccc(NC(=O)Cn2nnc(-c3cccc(OC)c3OC)n2)c(C)c1 | 7.99 |
| COc1ccc(Cl)cc1NC(=O)CN(C)C(C)C(=O)NCC1CCCCC1 (centres unmarked) | 9.96 |
| Cc1ccc(OCc2cc(C(=O)NCc3cnn(-c4cccc(F)c4)c3)no2)cn1 | 16.3 |
| Cn1c(CNc2cccc(Cl)c2)nnc1SCC#N | 8.75 |
| O=C(Nc1nnc(-c2cccs2)o1)c1cccc(Oc2ccccc2)c1 | 8.86 |
| CNC(=S)NNC(=O)COc1ccccc1C | 11.7 |
| O=C(NCc1ccccc1)c1cnc2n(c1=O)CCS2 | 11.1 |
| CCOc1ccccc1/C=N/OCC(=O)NCc1ccc(F)cc1 | 12 |
| COc1cccc(F)c1C(=O)NC(=O)Nc1ccc2nc(C)oc2c1 | 5.11 |
| O=C(CSc1nnc(CNC(=O)c2c(F)cccc2Cl)o1)Nc1ccc2c(c1)OCO2 | 8.96 |
| Cc1ccc(C)c2c(SC(C)C(=O)NCc3ccco3)nc(-c3ccccc3)nc12 (centres unmarked) | -71.2 |
| COc1cc(C(=O)Nc2sc(C)c(C)c2C(=O)O)cc(OC)c1OC | 13.7 |
| O=[N+]([O-])c1ccccc1/C=C/CN1CCSCC1 | 9.42 |
| COc1ccc(-c2nn(-c3ccccc3)cc2CO)cc1 | 4.87 |
| COc1ccccc1Oc1ccc(N2CC(C(=O)OCC(=O)c3ccccc3)CC2=O)cc1 (centres unmarked) | 7.47 |
| CCOC(=O)c1c(-c2ccccc2)csc1NC(=O)CSc1ccccc1 | -1.83 |
| Cc1cc2oc(=O)cc(COC(=O)Cn3cnnn3)c2cc1C(C)C | 14.1 |
| Cc1ccc(NS(=O)(=O)c2ccc(F)cc2)nc1 | 11 |

From paper PMC4336329 (PLoS ONE, 2015)
